Measurements reported in publication PMC4336329 (PLoS ONE, 2015).
Out of some 310,000 compounds screened, about 14,000 (4.5%) showed an effect of 50% or more. The effect is printed as a negative number. This is one part of the list.

The molecules below were run against human ether-à-go-go-related gene (hERG) potassium channel (human, UniProt Q12809) (assay: primary screen, population patch clamp on CHO cells stably expressing hERG).
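Note: peak tail current of the secondary pulse compared with the same well before compound.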

human ether-à-go-go-related gene (hERG) potassium channel, sequence (Q12809 whole entry, looked up): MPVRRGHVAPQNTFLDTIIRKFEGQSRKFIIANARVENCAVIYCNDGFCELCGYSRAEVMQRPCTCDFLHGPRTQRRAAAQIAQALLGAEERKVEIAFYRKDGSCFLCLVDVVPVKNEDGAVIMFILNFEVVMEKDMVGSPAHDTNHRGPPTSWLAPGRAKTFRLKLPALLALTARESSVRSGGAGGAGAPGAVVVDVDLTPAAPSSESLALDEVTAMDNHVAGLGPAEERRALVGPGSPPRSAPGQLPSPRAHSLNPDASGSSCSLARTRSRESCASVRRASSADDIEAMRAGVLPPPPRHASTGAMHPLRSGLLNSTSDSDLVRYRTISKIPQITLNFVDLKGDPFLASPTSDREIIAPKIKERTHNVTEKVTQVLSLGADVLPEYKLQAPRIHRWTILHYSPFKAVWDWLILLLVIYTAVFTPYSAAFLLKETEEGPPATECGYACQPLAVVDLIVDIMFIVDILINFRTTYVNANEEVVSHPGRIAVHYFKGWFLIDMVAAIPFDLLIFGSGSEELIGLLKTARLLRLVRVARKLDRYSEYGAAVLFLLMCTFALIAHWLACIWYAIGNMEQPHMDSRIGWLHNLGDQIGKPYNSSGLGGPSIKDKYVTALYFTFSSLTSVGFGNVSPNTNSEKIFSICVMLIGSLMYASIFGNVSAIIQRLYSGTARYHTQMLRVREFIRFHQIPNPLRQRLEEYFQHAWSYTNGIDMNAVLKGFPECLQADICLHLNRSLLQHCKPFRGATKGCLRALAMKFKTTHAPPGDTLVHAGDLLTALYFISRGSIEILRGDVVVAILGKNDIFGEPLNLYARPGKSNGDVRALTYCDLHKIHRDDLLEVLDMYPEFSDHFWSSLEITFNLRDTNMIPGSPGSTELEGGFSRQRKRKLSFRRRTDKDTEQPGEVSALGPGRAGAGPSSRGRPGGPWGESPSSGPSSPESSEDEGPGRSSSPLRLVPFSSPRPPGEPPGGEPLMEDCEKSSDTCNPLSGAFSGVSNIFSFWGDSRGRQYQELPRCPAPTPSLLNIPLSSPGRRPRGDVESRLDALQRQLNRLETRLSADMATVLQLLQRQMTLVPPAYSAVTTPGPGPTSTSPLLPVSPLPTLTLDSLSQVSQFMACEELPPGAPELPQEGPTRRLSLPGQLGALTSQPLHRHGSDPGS

Going from `Cc1ccc(OCC(=O)O/N=C(\N)c2cccc([N+](=O)[O-])c2)cc1C` to `O=C(NCCCCc1ccccc1)c1cccc([N+](=O)[O-])c1`, the “hERG current change (%, negative = inhibition) at 10uM” value falls from -0.145% to -45.6%.

Going from `Cc1ccc2nc(N/C(=N/S(=O)(=O)c3ccc(F)cc3)c3ccccc3)sc2c1` to `Cc1noc(C)c1CSCC(=O)Nc1nc2ccc(Oc3ccccc3)cc2s1`, the “hERG current change (%, negative = inhibition) at 10uM” value falls from 33.5% to -13.6%.

Compared with `COc1ccc(OC)c(N(C(=O)c2snc(C(N)=O)c2N)C(C(=O)NCC2CCCO2)c2ccc3ncccc3c2)c1` (stereo not drawn), `O=C(CSc1nnc(Cn2c(=O)sc3ccccc32)n1-c1ccccc1)NCC1CCCO1` (stereo not drawn) is lower in “hERG current change (%, negative = inhibition) at 10uM” value: 14.4% for the first, -0.314% for the second.

Compared with `O=C(Cn1c(=O)oc2cccnc21)Nc1ccc(C(F)(F)F)cc1`, `NS(=O)(=O)c1ccc(NC(=O)COc2ncnc3sccc23)cc1` is higher in “hERG current change (%, negative = inhibition) at 10uM” value: -4.91% for the first, 3.94% for the second.

First: COC(=O)c1ccc(N2C(=O)CC(N3CCN(C(=O)c4ccco4)CC3)C2=O)cc1 (stereo not drawn)
Second: Cc1ccc(C(c2sc3nc(C)nn3c2O)N2CCN(C(=O)c3ccco3)CC2)cc1 (stereo not drawn)
The “hERG current change (%, negative = inhibition) at 10uM” value of the first is higher: -21.2% for the first, -31.4% for the second.

Compared with `O=C(CSc1nnc2c(n1)[nH]c1ccc(F)cc12)N1CCOCC1`, `Cc1nc(N2CCN(c3ccccn3)CC2)c2c(C)c(C(=O)Nc3ccc(F)cc3F)sc2n1` is lower in “hERG current change (%, negative = inhibition) at 10uM” value: 5.63% for the first, -57.9% for the second.

Going from `CC(C)(O)C#Cc1ccc(CN2CCC(CO)(CCc3ccccc3)CC2)cc1` to `Cc1ccc(CN2CCN(/N=C/c3ccc(O)c(O)c3)CC2)cc1`, the “hERG current change (%, negative = inhibition) at 10uM” value rises from -39.8% to -21.7%.

Going from `CCCC12CN3CC(CCC)(CN(C1)C3c1ccco1)C2=O` (stereo not drawn) to `CCC(C)[C@H]1CNCCN1CC1(c2ccccc2)CC1` (stereo partly drawn), the “hERG current change (%, negative = inhibition) at 10uM” value rises from 6.54% to 12.1%.

Compared with `O=C(CCCCCN1C(=O)[C@@H]2Cc3ccccc3CN2C1=O)Nc1ccccc1F`, `Cl.O=C(CCN1CCc2ccccc2C1)Nc1ccc(F)c(F)c1` is lower in “hERG current change (%, negative = inhibition) at 10uM” value: 3.4% for the first, -49.4% for the second.

First: COCc1[nH]c(=S)c(C#N)cc1C(=O)OC
Second: COc1ccc([N+](=O)[O-])cc1NC(=O)C(C)OC(=O)c1cccnc1 (stereo not drawn)
The “hERG current change (%, negative = inhibition) at 10uM” value of the first is higher: 13.3% for the first, -42.1% for the second.

Compared with `O=C(CSc1ccccn1)c1ccc2c(c1)OCO2`, `O=C(N/N=C\c1ccc(-c2ccc([N+](=O)[O-])cc2)o1)c1ccc2c(c1)OCO2` is higher in “hERG current change (%, negative = inhibition) at 10uM” value: 0.963% for the first, 3.43% for the second.

Going from `COc1cccc(NS(=O)(=O)c2ccc3c(c2)n(C)c(=O)c(=O)n3C)c1` to `Cc1ccc(NS(=O)(=O)c2cn(C)c(=O)n(C)c2=O)cc1C`, the “hERG current change (%, negative = inhibition) at 10uM” value rises from -6.59% to 9.41%.

Compared with `COc1ccc(C2Nc3ccccc3C(=O)N2NS(=O)(=O)c2ccccc2)c(OC)c1` (stereo not drawn), `COc1ccc(OC)c(/C=C2\SC(=S)N(NS(=O)(=O)c3ccc(C)cc3)C2=O)c1` is lower in “hERG current change (%, negative = inhibition) at 10uM” value: 11.1% for the first, -9.36% for the second.

Going from `CN(C(=O)c1ccco1)c1nc(CC(=O)Nc2ccccc2)cs1` to `Cc1c(C(=O)OCC(=O)NCc2ccccc2)oc2ccccc12`, the “hERG current change (%, negative = inhibition) at 10uM” value rises from -21.1% to 11.3%.

First: CN(CCO)CC(O)CN(c1ccccc1)c1ccccc1.Cl (stereo not drawn)
Second: CC(OC(=O)c1ccc2ccccc2n1)C(=O)c1ccccc1 (stereo not drawn)
The “hERG current change (%, negative = inhibition) at 10uM” value of the first is lower: -52.1% for the first, -30% for the second.

Going from `COC(=O)N/N=C/c1cc(C)n(-c2cccc3ccccc23)c1C` to `COc1ccc(-c2nc3ccccc3c(=O)n2N)cc1`, the “hERG current change (%, negative = inhibition) at 10uM” value rises from -14% to -13.7%.

Going from `O=C(NCC(c1ccco1)N1CCN(c2ccccc2)CC1)c1ccco1` (stereo not drawn) to `Cc1cc(N2CCN(c3ccccc3)CC2)n2cc(-c3ccccc3)nc2n1`, the “hERG current change (%, negative = inhibition) at 10uM” value falls from -6.12% to -75.3%.

First: O=C(CCCOc1ccc(Cl)cc1Cl)N1CCCc2ccccc21
Second: O=C(O)c1ccccc1OCCOCCOc1ccccc1C(=O)O
The “hERG current change (%, negative = inhibition) at 10uM” value of the first is lower: -15.5% for the first, 11.5% for the second.

Going from `CCCCCCCCC(=O)NNC(=O)c1c(O)c2ccccc2n(CC)c1=O` to `CCCCN(C(=O)CCCSc1nc2ccccc2[nH]1)c1c(N)n(Cc2ccccc2)c(=O)[nH]c1=O`, the “hERG current change (%, negative = inhibition) at 10uM” value falls from 11.1% to -29.3%.

Going from `CCC1(c2ccc(F)cc2)NC(=O)N(CC(=O)c2cc(C)n(C3CC3)c2C)C1=O` (stereo not drawn) to `CCC(CC)C(=O)N1CC(=O)Nc2ccc(F)cc2C1c1ccccc1` (stereo not drawn), the “hERG current change (%, negative = inhibition) at 10uM” value rises from -22.5% to -11.4%.

Compared with `CCCc1cc(C(=O)Nc2ccc(C(=O)OC)cc2)cs1`, `COc1ccc(OC)c(NC(=O)C(CCSC)NS(=O)(=O)c2cccs2)c1` (stereo not drawn) is lower in “hERG current change (%, negative = inhibition) at 10uM” value: 5.28% for the first, -25.6% for the second.

Compared with `N/C(CN1CCCCC1)=N\S(=O)(=O)c1cc(Cl)cc(Cl)c1`, `O=c1cc(CO)oc(CN2CCCC2)c1O` is lower in “hERG current change (%, negative = inhibition) at 10uM” value: 22.1% for the first, -2.85% for the second.

Going from `CC(C)OCCCNc1ncc2c(n1)CC(c1ccc(N(C)C)cc1)CC2=O` (stereo not drawn) to `CC(C)CNC(=O)CSc1nc2nn(-c3ccccc3)c(=O)c-2c2n1CCCCC2`, the “hERG current change (%, negative = inhibition) at 10uM” value falls from 3.92% to -18%.

Going from `Cc1ccc(C(=O)N(c2ccccn2)C(C)c2ccco2)cc1` (stereo not drawn) to `Cc1cccc(C(CC(=O)NCc2ccco2)c2ccccc2)c1O` (stereo not drawn), the “hERG current change (%, negative = inhibition) at 10uM” value falls from -0.464% to -19.1%.

First: Cc1cc(C)n(-c2ncnc3sc4c(c23)CC(C)CC4)n1 (stereo not drawn)
Second: Cc1nn(Cc2noc(C(=O)NC3CCC(C)CC3)n2)c(C)c1Br (stereo not drawn)
The “hERG current change (%, negative = inhibition) at 10uM” value of the first is higher: 40.6% for the first, 18.9% for the second.

Compared with `Cc1cc(C)cc(N2CCCn3c2nc2c3c(=O)n(CC(=O)OCc3ccccc3)c(=O)n2C)c1`, `Cn1c(N)c(C(=O)COC(=O)c2ccnc3ccccc23)c(=O)n(C)c1=O` is higher in “hERG current change (%, negative = inhibition) at 10uM” value: -29.9% for the first, 3.11% for the second.

Compared with `CC(NCCc1ccc(S(N)(=O)=O)cc1)C(=O)NCCc1ccc(F)cc1.O=C(O)C(=O)O` (stereo not drawn), `COCCCNC(=O)c1ccccc1N(Cc1ccccc1)S(=O)(=O)c1ccc(OC)cc1` is lower in “hERG current change (%, negative = inhibition) at 10uM” value: 0.754% for the first, -4.75% for the second.

Compared with `COc1ccccc1Nc1nc(N)nc(CSc2nncn2C)n1`, `CC(NS(=O)(=O)c1c(N)n(C)c(=O)n(C)c1=O)c1ccccc1` (stereo not drawn) is higher in “hERG current change (%, negative = inhibition) at 10uM” value: 6.64% for the first, 20.7% for the second.

Going from `CCC(OCC(O)CN1CCN(CCN2C(=O)c3cccc4cccc(c34)C2=O)CC1)c1ccccc1.Cl` (stereo not drawn) to `CN1CCN(S(=O)(=O)c2ccc(C(=O)Nc3ccccc3)cc2)CC1`, the “hERG current change (%, negative = inhibition) at 10uM” value rises from -58.4% to -6.18%.

First: CCC1CCCCN1S(=O)(=O)c1ccc(-n2cnnn2)c(C)c1 (stereo not drawn)
Second: O=C(NCc1ccncc1)c1ccc(N2CCCC2)c([N+](=O)[O-])c1
The “hERG current change (%, negative = inhibition) at 10uM” value of the first is higher: 19.8% for the first, -23.3% for the second.

Compared with `Cc1ccc(NC(=O)/C(=C\c2ccc([N+](=O)[O-])cc2)NC(=O)c2ccccc2)cc1`, `CC(=O)Nc1ccc(/C=N/Nc2ccc(C(=O)c3c(C)cc4ccccn34)cc2[N+](=O)[O-])cc1` is higher in “hERG current change (%, negative = inhibition) at 10uM” value: -38.6% for the first, 8.94% for the second.

Compared with `COc1ccc(C2=NOC(C(=O)N3CCCCCC3)C2)cc1OC` (stereo not drawn), `COc1cc(OC)c2c(=O)cc(-c3cccnc3)oc2c1` is higher in “hERG current change (%, negative = inhibition) at 10uM” value: -21.6% for the first, 12.1% for the second.

First: CCCC1(C(=O)OCC)NC(c2ccc(O)cc2)C2C(=O)N(c3ccc4c(c3)OCCO4)C(=O)C21 (stereo not drawn)
Second: O=C(NCc1ccc2c(c1)OCO2)C1CCC(CNS(=O)(=O)c2ccccc2)CC1 (stereo not drawn)
The “hERG current change (%, negative = inhibition) at 10uM” value of the first is higher: -2.64% for the first, -7.84% for the second.

Going from `CN(C)c1cc[n+](/C(C(=S)Nc2ccc(SC(F)F)cc2)=C(/[O-])c2ccccc2)cc1` to `Cc1onc(-c2ccccc2)c1C(=O)Nc1ccc(S(=O)(=O)N2CCOCC2)cc1`, the “hERG current change (%, negative = inhibition) at 10uM” value falls from 2.92% to -29.6%.

Compared with `CC(=O)C[C@H](O)CC(=O)[C@H]1OC(=O)CC/C=C\Cc2ccccc21`, `CC[C@@H](C)CN1C(=O)N[C@@H](CCc2ccccc2)C(C(C)=O)=C1C` is lower in “hERG current change (%, negative = inhibition) at 10uM” value: 14.9% for the first, -10.2% for the second.

Going from `CC(=O)Nc1ccc(Nc2nc(Cl)nc(Nc3ccc(NC(C)=O)cc3)n2)cc1` to `CC(=O)Oc1cccc(/C=N\NC(=O)C(=O)N/N=C/c2cccc(OC(C)=O)c2)c1`, the “hERG current change (%, negative = inhibition) at 10uM” value falls from 10% to 2.4%.

Going from `CCOC(=O)CC1=NS(=O)(=O)c2ccccc2N1` to `O=C(CN1C(=O)c2ccccc2S1(=O)=O)Nc1ccccc1`, the “hERG current change (%, negative = inhibition) at 10uM” value falls from 1.76% to -3.55%.

First: O=C(Nc1nccs1)C1CCCN1S(=O)(=O)c1cccc2cccnc12 (stereo not drawn)
Second: CCOc1ccccc1N(CC(=O)NC(C)(C)C)C(=O)CCC(=O)Nc1nccs1
The “hERG current change (%, negative = inhibition) at 10uM” value of the first is higher: 0.177% for the first, -4.92% for the second.

Compared with `O=C(c1ccccc1)N(Cc1nc2ccccc2c(=O)[nH]1)C1CCCCC1`, `C=CCn1c(O)c(N=Nc2nc3ccccc3c(=O)n2-c2ccccc2)c2ccccc21` is higher in “hERG current change (%, negative = inhibition) at 10uM” value: 1.35% for the first, 10.5% for the second.

Going from `COc1cc(CNCCO)cc(Br)c1OCc1cccs1.Cl` to `CC(C)NC(=O)N(Cc1ccccc1)Cc1cccs1`, the “hERG current change (%, negative = inhibition) at 10uM” value rises from -8.81% to 0.639%.

Going from `O=C(NC12CCC(O)C(SC1)/C2=N/O)c1ccccc1` (stereo not drawn) to `COC(=O)[C@@]1(Cc2ccccc2)C=C[C@@H](C)N1C(C)=O`, the “hERG current change (%, negative = inhibition) at 10uM” value falls from 13% to 2.06%.

Compared with `CSCCC(NC(=O)c1ccc([N+](=O)[O-])cc1Cl)C(=O)OCC(=O)C12CC3CC(CC(C3)C1)C2` (stereo not drawn), `S=C(NCc1ccncc1)NC1CCCCC1` is lower in “hERG current change (%, negative = inhibition) at 10uM” value: 12% for the first, 4.36% for the second.
